# Measured values reported in the supplement of paper PMC11417369.
# ± gives the standard deviation of the averaged measurements. The list shows a part of the results.
# System: PfAP2-G AP2 domain (GST-tagged)
# Assay: gcPBM binding intensity (ln(normalized median fluorescence intensity)); higher = stronger DNA binding
# How it was run: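 GST-tagged P. falciparum DNA-binding domains produced in E. coli were incubated for 1 h on an Agilent 4 × 180k array of primer-extended double-stranded 36-bp intergenic genomic probes with negative controls. Binding intensity is the highest Masliner-normalised natural-log median intensity across replicate spots of either probe orientation, with bound protein detected by Alexa488 anti-GST antibody at 488 nm.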
row,Sequence,gcPBM binding intensity (ln)
1,ATATATCATAATAAAAGTACTTATATATTTTATATA [XGTACX_site560],11.2 ± 0.84
2,TTATTATTCCCTCATTTTGTTACCATTATTTCAATT [CACACA_negctrl_site1023],10.35 ± 0.021
3,TTAAAATTTTTTTTTTTTTTTTTTTTTTTTTTTTTC [CACACA_negctrl_site957],9.41 ± 0.19
4,ATATTTATAACTTGTACACACAAATATGCATATATA [CACACA_site7583],11.4 ± 0.74
5,TTGTTAAAATTATTAAGTTAAATATCGATTTGTAAA [XGTACX_negctrl_site429],9.52 ± 0.16
6,TATAAGTTTATATATACACACATATATATATATATA [CACACA_site3274],10.3 ± 0.81
7,AAAATAAAAAGAAAAAATAAAAAGAAAAAATAAAAA [CACACA_negctrl_site120],9.34 ± 0.26
8,TTATATAATCCTTTCAAACACACAAAATATAATTAA [CACACA_site1830],9.98 ± 0.11
9,AAAAAAAATATAAGTGGTACTCACATAAAGACATAT [XGTACX_site3709],11.3 ± 0.84
10,AAATAAAATACATATAAACACACATATAAACCAACA [CACACA_site8789],10.2 ± 0.15
11,TTTTTAGTTCATTAAACACACAAAAAAAAAAATAAA [CACACA_site6035],9.97 ± 0.29
12,TTTTTTATTCTTTTTGCACACAGGAAATTTACAGAT [CACACA_site1090],10.3 ± 0.35
13,TAATACTTTTAATCTACACACGCTGAGACATGCTTT [CACACA_site1484],10.2 ± 0.16
14,AGTGAAAAAAAATTTACACACATAAAATATAAACGA [CACACA_site3724],10.005 ± 0.007
15,GAATGCATGTAAATATGTACATATATTTAAAAATTT [XGTACX_site6032],11.3 ± 0.89
16,TGTTAAAAGGTTAAATTAAAATAACCTCCGGAAATT [GTGCAC_negctrl_site236],9.735 ± 0.049
17,ACATATAAATTGTGTACACATATATATATATTTTTT [CACACA_site5946],11.8 ± 1
18,ATAAATATATATTTACGTACATATTATATATATATA [XGTACX_site6172],11.4 ± 0.79
19,AAAAAAATTTCACATTGTACTTTAATAATATACTAC [XGTACX_site7264],11.2 ± 0.8

row,Sequence,gcPBM binding intensity (ln)
1,TTCATAATAAAAAGGTGTACATATATATATATATAT [XGTACX_site2829],11.5 ± 0.92
2,AAGCATTTAATGTTTTATATAACATGTATTTTTTAT [CACACA_negctrl_site673],9.86 ± 0.071
3,GTTTTGTACATATTCTCACACATATAAAAATACCCA [CACACA_site4446],11.2 ± 0.83
4,TGTTCTATGATTTGTACACACTTTTTTTTAAAATGC [CACACA_site5558],11.4 ± 0.88
5,TATATATACATATACACACACACACCGATATATATA [CACACA_site8706],10.1 ± 0.26
6,TTTATATGTATACAAACATATAAATATAAATGTATT [TGCATGCA_negctrl_site346],9.675 ± 0.078
7,TAAATTCTTTATAATCGTACATAAATAGAAAAATAA [XGTACX_site601],11.2 ± 0.97
8,TAAAAGAAATAATATACACACATATATAAAAATAAA [CACACA_site1329],9.87 ± 0.085
9,TAAAATGAATATAGGTGTACTTAAAAAAAAGTAAAA [XGTACX_site4613],11.6 ± 0.86
10,TTCAAATAATTTAAATGTACGTTGCTTTATTAAAAG [XGTACX_site3674],11.1 ± 0.69
11,CATGTATACTATAATACACACTATAAAATATACACC [CACACA_site7121],10.3 ± 0.16
12,TATCGAGCCATTTTTACATGCAATTATACATAATTT [TGCATGCA_site987],9.87 ± 0.057
13,AAAACATGTTCAACATGTACACAACAGGATGAATAT [XGTACX_site506],11.2 ± 0.64
14,ATAAATAATAAAAAATGTACACATATAAATATAAAG [XGTACX_site727],11.4 ± 0.64
15,ATGATGAAAATAGAAATACACACTAAAAAATAAAAT [CACACA_site1136],9.97 ± 0.042
16,TTTTACTAAATATATACACACATTATACATATATAT [CACACA_site9081],10.2 ± 0.12
17,CTTACTTACTTACTCACACACATATACAAAGAAAAA [CACACA_site3347],10.4 ± 0.3
18,AAATATATGTTATATGTGCACTTTTTTTTTTTTTTT [GTGCAC_site9667],10.7 ± 0.47
19,TATATAACCGAGTGCACACACAAAAAAAAAGTGAAC [CACACA_site6806],10.7 ± 0.55

row,Sequence,gcPBM binding intensity (ln)
1,AGGAAACAAGAAATGAAGAATCATGTAGAAGGCCCA [GTGCAC_negctrl_site187],9.68 ± 0.099
2,TATTAAATATTGTATACATGCAAATACTAGAAAATT [TGCATGCA_site370],10.17 ± 0.085
3,AATAATATAAATATTACACACTAATTGTATTATAGA [CACACA_site6347],9.95 ± 0.13
4,ATGATGTGCTTTAAAAGTACTTAAGTTATATTCTTT [XGTACX_site7127],11 ± 0.64
5,AAAATTAAAATTTTCACACAGATATATTTACAATTT [CACACA_site5692],9.78 ± 0.014
6,ATATTACGCACAAAAAAAAAAAAAAAAAAAAAAAAA [CACACA_negctrl_site941],10.2 ± 0.64
7,AATTACAAATATTCATGTACATATTTATAAATACAT [XGTACX_site5430],11.2 ± 0.73
8,ATATATATATATATGTGTACATATATTAAGATATAT [XGTACX_site1065],11.4 ± 0.94
9,ATATTATAGAAATATACACACATTGTTTTATAGCAT [CACACA_site7177],9.79 ± 0.16
10,TATGTTATATAATATTGTACACAAAATGGTTTCTAT [XGTACX_site7686],11.5 ± 1
11,TAAATTAAAAAAAATACACACACACCGACACATATA [CACACA_site9084],10.4 ± 0.28
12,TTCGTAACTGATTCAACACACAAAAGGGGGAAAATT [CACACA_site1754],10.9 ± 0.59
13,AAAAAGAAGAATAATACACACAAATTACTTTATATA [CACACA_site6984],9.785 ± 0.064
14,CATAAAAATATTAATAAACACACAATCAGATATTGA [CACACA_site9032],9.825 ± 0.049
15,AAATATATATAAACAAGTACATATTTAAAAAAAGGA [XGTACX_site2631],11.3 ± 0.74
16,AGGTATGTCTATAAATGTACATATGAGTTCAATTTC [XGTACX_site2244],11 ± 0.49
17,CACAGTGATATAAAAACACACATGAATTCTAATTTC [CACACA_site6884],9.75 ± 0.16
18,TAAAGTTATGCAATAACACACATATACAATACATAT [CACACA_site6698],9.98 ± 0.057
